{"source": "PubChem BioAssay AID651582", "about": "(Sanford-Burnham Center for Chemical Genomics, 2012)", "note": "The other results are listed elsewhere or left out. The main result of the screen is listed elsewhere. These columns were measured beside it and carry no call. Compounds called inactive in the main read-out are mostly missing here.", "data": [{"assay": "inhibitors of triacylglycerol accumulation, primary screen, cell-based, uHTS, fluorescence, H9c2 (AID 651582)", "conditions": "H9c2 cells, Nile Red lipid (TAG) fluorescence; measured here:; at 12.5 µM; cells loaded with 200 µM oleic acid", "units": {"DAPI nuclei signal change (viability), lower = more cytotoxic": "%"}, "values": [{"smiles": "O=C(N/N=C/c1cc(Cl)cc(Cl)c1O)c1ccncc1", "DAPI nuclei signal change (viability), lower = more cytotoxic": -29.8}, {"smiles": "COc1cccc(/C=N/NC(=O)CSc2cccc3cccnc23)c1", "DAPI nuclei signal change (viability), lower = more cytotoxic": -22.5}, {"smiles": "Cc1cc(-n2c(C)cc(C(=O)CSc3nc4ccccc4c(=O)n3Cc3ccco3)c2C)no1", "DAPI nuclei signal change (viability), lower = more cytotoxic": -1.73}, {"smiles": "CC(C)c1cccc(C(C)C)c1OC(=O)[C@H]1OC(c2ccc(Br)cc2)=C[C@@H]1c1ccc(Br)cc1", "DAPI nuclei signal change (viability), lower = more cytotoxic": -19.8}, {"smiles": "C[C@H](O)[C@@H]1CN2CCc3c([nH]c4ccc(-c5ccc6c(c5)OCO6)cc34)[C@@H]2C[C@@H]1N(C)C(=O)Nc1cc(Cl)cc(Cl)c1", "DAPI nuclei signal change (viability), lower = more cytotoxic": -43}, {"smiles": "Cc1cc(C)cc(-n2c3ccc(NC(=O)Cc4cccc5ccccc45)cc3c(=O)n2C)c1", "DAPI nuclei signal change (viability), lower = more cytotoxic": -41}, {"smiles": "O=C(CCC1CCCC1)Nc1ccc(OCC(=O)N2CCOCC2)cc1", "DAPI nuclei signal change (viability), lower = more cytotoxic": 4.64}, {"smiles": "Oc1ccc(C[C@H]2CNC(=S)N2CC2CCCN2C[C@H](Cc2ccc(O)cc2)N2C[C@H](Cc3ccc(O)cc3)N(CC3CCCCC3)C2=S)cc1", "note": "(some centres not stated)", "DAPI nuclei signal change (viability), lower = more cytotoxic": 4.26}, {"smiles": "CCN(CC(=O)Nc1ccc(C(=O)Nc2ccc(OC)cc2)cc1)Cc1nc2ccccc2c(=O)[nH]1", "DAPI nuclei signal change (viability), lower = more cytotoxic": -26.1}, {"smiles": "O=C(O)c1ccc(N/N=C/c2ccc(-c3cccc(Cl)c3)o2)cc1", "DAPI nuclei signal change (viability), lower = more cytotoxic": 21.7}, {"smiles": "C(=N\\Nc1nc2ccccc2[nH]1)/c1cccc2cccnc12", "DAPI nuclei signal change (viability), lower = more cytotoxic": -34}, {"smiles": "CCOc1ccc(CC2c3cc(OCC)c(OCC)cc3CCN2C(=O)c2cc(OC)c(OC)c(OC)c2)cc1OCC", "note": "(configuration not stated)", "DAPI nuclei signal change (viability), lower = more cytotoxic": 9.71}, {"smiles": "O=C(c1ccc(F)cc1)C1CCN(C(=O)NC2CCCCC2)CC1", "DAPI nuclei signal change (viability), lower = more cytotoxic": -9.27}, {"smiles": "Cc1cc(C)c2nc(N3CCC(C(=O)NCCCN4CCCCC4)CC3)sc2c1", "DAPI nuclei signal change (viability), lower = more cytotoxic": 3.61}, {"smiles": "CN(C)CCCNC(=O)C[C@H]1C[C@H](C(=O)N2CCOCC2)[C@@]2(CCC3CCCC3)c3[nH]c4cc(-c5ccco5)ccc4c3CCN2C1=O", "DAPI nuclei signal change (viability), lower = more cytotoxic": -8.46}, {"smiles": "COC(=O)[C@]1(C)N[C@H](c2ccc(-c3ccc(Cl)c(Cl)c3)c(OC)c2)[C@@H]2C(=O)N(C)C(=O)[C@@H]21", "DAPI nuclei signal change (viability), lower = more cytotoxic": -8.11}, {"smiles": "CCN(CC)CCC(=O)Nc1cccc2c1C(=O)c1ccccc1C2=O", "DAPI nuclei signal change (viability), lower = more cytotoxic": -48.6}, {"smiles": "CSc1nc(N(C)NC(=O)c2ccc(Cl)cc2)c2ccccc2n1", "DAPI nuclei signal change (viability), lower = more cytotoxic": -33.2}, {"smiles": "Cc1ccccc1NS(=O)(=O)c1ccc(N2CCCC2=O)cc1", "DAPI nuclei signal change (viability), lower = more cytotoxic": -32.8}, {"smiles": "CC(C)(C)OC(=O)N(CCc1ccccc1)Cc1ccccc1OCc1cccc(NC(=O)/C=C/c2ccccc2)c1", "DAPI nuclei signal change (viability), lower = more cytotoxic": -15.3}, {"smiles": "COC(=O)C=C1CCC2C3CCC4=CC(=O)C(Br)CC4(C)C3C(=O)CC12C", "note": "(configuration not stated)", "DAPI nuclei signal change (viability), lower = more cytotoxic": -9.44}, {"smiles": "CCN(CC)CCNc1ncnc2c1sc1nc(N3CCCC3)c3c(c12)CC(C)(C)OC3", "DAPI nuclei signal change (viability), lower = more cytotoxic": -23.9}, {"smiles": "COc1cc(-c2nc(-c3ccc(NC(=O)c4ccc5c(c4)OCO5)cc3)no2)cc(OC)c1OC", "DAPI nuclei signal change (viability), lower = more cytotoxic": -19.4}, {"smiles": "CCOc1ccc(CN(C)C(=O)CCl)cc1", "DAPI nuclei signal change (viability), lower = more cytotoxic": -20.2}, {"smiles": "CCCCCCCCCCCCCCCC[n+]1ccccc1", "DAPI nuclei signal change (viability), lower = more cytotoxic": -38.6}, {"smiles": "Cc1cc(C)c2c(N)c3ccccc3nc2n1", "DAPI nuclei signal change (viability), lower = more cytotoxic": 97.8}, {"smiles": "CSc1cc(-c2ccc(Cl)cc2)n(Cc2ccccc2)c(=O)c1C#N", "DAPI nuclei signal change (viability), lower = more cytotoxic": -31.1}, {"smiles": "CCOC(=O)c1[nH]c2ccc(OCC)cc2c1NC(=O)CN1CCN(c2ccccc2)CC1", "DAPI nuclei signal change (viability), lower = more cytotoxic": 24.9}, {"smiles": "CCN1C(=O)[C@H]2[C@@H](c3ccc(-c4cccc(Cl)c4)c(OC)c3)N[C@@](CC(C)C)(C(=O)OC)[C@H]2C1=O", "DAPI nuclei signal change (viability), lower = more cytotoxic": 110}, {"smiles": "Cn1ncc2c(O/N=C(\\N)c3ccc(C(F)(F)F)cc3)ncnc21", "DAPI nuclei signal change (viability), lower = more cytotoxic": -39.4}, {"smiles": "COc1ccccc1-n1cnc2cc(NCc3cccs3)ccc21", "DAPI nuclei signal change (viability), lower = more cytotoxic": -21.5}, {"smiles": "O=C1NC(c2cccc3ccccc23)Nc2ccc(Cl)cc21", "note": "(configuration not stated)", "DAPI nuclei signal change (viability), lower = more cytotoxic": -31.7}, {"smiles": "CCC1(O)CC2CN(CCc3c([nH]c4ccccc34)C(C(=O)OC)(c3cc4c(cc3OC)N(C=O)C3C(O)(C(=O)OC)C(OC(C)=O)C5(CC)C=CCN6CCC43C65)C2)C1", "note": "(configuration not stated)", "DAPI nuclei signal change (viability), lower = more cytotoxic": -42.2}, {"smiles": "COc1ccc(Cc2nnc(SCC(=O)Nc3ccc(C)cc3)n(N)c2=O)cc1", "DAPI nuclei signal change (viability), lower = more cytotoxic": 1.62}, {"smiles": "CCCCCCSc1ccc([C@H]2N[C@@](CC(C)C)(C(=O)OC)[C@H]3C(=O)N(C)C(=O)[C@@H]23)cc1OC", "DAPI nuclei signal change (viability), lower = more cytotoxic": -39.7}, {"smiles": "O=C(C[C@H]1C[C@H](C(=O)N2CCCCC2)[C@@]2(CCc3ccccc3)c3[nH]c4cc(-c5ccco5)ccc4c3CCN2C1=O)NCc1cccc(C(F)(F)F)c1", "DAPI nuclei signal change (viability), lower = more cytotoxic": 11.8}, {"smiles": "OCCCn1c(C2CCCN2c2nc(-c3ccc(F)cc3)cs2)nc2cc(C(F)(F)F)ccc21", "note": "(configuration not stated)", "DAPI nuclei signal change (viability), lower = more cytotoxic": -11}, {"smiles": "Cc1cc(C)c2nc(SCC(=O)N3CC(=O)Nc4ccccc43)c(C#N)cc2c1", "DAPI nuclei signal change (viability), lower = more cytotoxic": -21.1}, {"smiles": "O=C(NCC(c1ccc(F)cc1)N1CCOCC1)c1ccc([N+](=O)[O-])o1", "note": "(configuration not stated)", "DAPI nuclei signal change (viability), lower = more cytotoxic": -48}, {"smiles": "CCOc1ccc(C2=Nc3ccccc3C(c3ccc(N4CCOCC4)cc3)=NN2)cc1", "DAPI nuclei signal change (viability), lower = more cytotoxic": -1.02}, {"smiles": "CC(C)n1cc(/C=C2/NC(=O)N(c3cccc(Cl)c3)C2=O)c2ccccc21", "DAPI nuclei signal change (viability), lower = more cytotoxic": -16.9}, {"smiles": "COC(=O)/C=C/c1ccccc1S(=O)(=O)N(Cc1ccccc1)Cc1ccco1", "DAPI nuclei signal change (viability), lower = more cytotoxic": -39.7}, {"smiles": "CS(=O)(=O)c1ccc(C(=O)OCC(=O)NCc2cccs2)cc1[N+](=O)[O-]", "DAPI nuclei signal change (viability), lower = more cytotoxic": -28.7}, {"smiles": "COc1cc(C#Cc2c(-c3cncn3C)n(C)c3ccc(-c4cc(OC)c(OC)c(OC)c4)cc23)cc(OC)c1", "DAPI nuclei signal change (viability), lower = more cytotoxic": 63.7}, {"smiles": "Cc1ccc(CNC(=O)c2ccc(N3CCC4(CC3)CC(c3ccccc3)=NO4)c(NC(=O)c3ccc(Br)cc3)c2)cc1", "DAPI nuclei signal change (viability), lower = more cytotoxic": 1.97}, {"smiles": "N#C/C(=C\\Nc1ccc2cn[nH]c2c1)c1nc(-c2ccc(Cl)cc2)cs1", "DAPI nuclei signal change (viability), lower = more cytotoxic": -48.9}, {"smiles": "O=C(Nc1c2ccccc2nc2ccccc12)C(Cl)(Cl)Cl", "DAPI nuclei signal change (viability), lower = more cytotoxic": -14.7}, {"smiles": "Cc1ccc2c(c1)c1c(n2CC(O)CNC2CCCC2)CCCC1", "note": "(configuration not stated)", "DAPI nuclei signal change (viability), lower = more cytotoxic": -46.5}, {"smiles": "O=C(Nc1ccc([N+](=O)[O-])cn1)c1cc(-c2cccc(Cl)c2)nc2ccccc12", "DAPI nuclei signal change (viability), lower = more cytotoxic": -15.3}, {"smiles": "CCN1CCN(c2cc(C)c3cc(NC(=O)c4ccc(Br)o4)ccc3n2)CC1", "DAPI nuclei signal change (viability), lower = more cytotoxic": -0.256}, {"smiles": "Nc1ccccc1C#Cc1ccccc1", "DAPI nuclei signal change (viability), lower = more cytotoxic": -10.8}, {"smiles": "O=C(CCC(=O)N1CCOc2ccc(Cl)cc21)NCCCN1CCC(Cc2ccccc2)CC1", "DAPI nuclei signal change (viability), lower = more cytotoxic": -36.1}, {"smiles": "Oc1cc(NCCN2CCOCC2)cc2cccnc12", "DAPI nuclei signal change (viability), lower = more cytotoxic": -29.8}, {"smiles": "Cc1cc(N2CCOCC2)nc2ccc(NC(=O)C3CCC(C)CC3)cc12", "note": "(configuration not stated)", "DAPI nuclei signal change (viability), lower = more cytotoxic": 22.5}, {"smiles": "CCCCNC(=O)C(=O)Nc1ccc2c(c1)N(S(=O)(=O)c1cccs1)CCC2", "DAPI nuclei signal change (viability), lower = more cytotoxic": -47.2}, {"smiles": "CC1(C(=O)Nc2ccc3c(c2)OCO3)Cc2c(-c3cccc(C(N)=O)c3)ccnc2O1", "note": "(configuration not stated)", "DAPI nuclei signal change (viability), lower = more cytotoxic": -29.1}, {"smiles": "C=CC[C@@H](CC(=O)N(CCO)Cc1ccccc1)C(=O)N[C@H](COC(=O)[C@@H](CC=C)Cc1ccc(F)cc1)Cc1c[nH]c2ccccc12", "DAPI nuclei signal change (viability), lower = more cytotoxic": -4.16}]}]}
